The subject of the assay is L1210 leukemia ip in BDF1 mice, survival T/C. Description: NCI In Vivo Anticancer Drug Screen. Data for tumor model L1210 Leukemia (intraperitoneal) in B6D2F1 (BDF1) mice. To be noted: endpoint: mean survival time, higher = longer survival.

Toxic doses and inconclusive results are not listed. Certain results were filed several times, with different values. The list is limited to them. The source may hold further records. Results that share an entry do not match, cause unknown; some may be repeats, others may stem from another dose, organism or construct than stated.

For `O=C1CCC(=O)N1CCc1csc2ccccc12`, where the note is “dose: 400.0 mg/kg/injection, schedule: Q01DX001 (ip), vehicle: carboxymethylcellulose (CMC)”, the T/C is given as 92 % of control, 95 % of control, 158 % of control.

With `O=C1C(N2CCOCC2)=C(c2ccccc2)c2ccccc21`, the T/C (dose: 25.0 mg/kg/injection, schedule: Q01DX009 (ip), vehicle: other) is 90 % of control, 101 % of control, 459 % of control.

On to `O=CC(NC(=O)N(CCCl)N=O)C(O)C(O)C(O)CO` (centres undefined), for which the T/C (dose: 45.0 mg/kg/injection, schedule: Q01DX001 (ip), vehicle: saline) was 120 % of control and 194 % of control.

On to `Cc1cccc(NC(=O)N(CCCl)N=O)c1`, for which the T/C (dose: 9.0 mg/kg/injection, schedule: Q01DX009 (ip), vehicle: carboxymethylcellulose (CMC)) was 124 % of control and 180 % of control.

The values above are taken from PubChem BioAssay AID248 (DTP/NCI, 2004).
